A lower IC50 marks a more sensitive line; a fit beyond the top or the lowest dose is shown as a bound at that dose. AUC, from the same fit, is the share of area under the viability curve across the 256-fold dose range; it is 1 without any effect and falls as sensitivity rises. For some of these results: Where the top dose is marked as inferred, it was calculated from the reported fits. For some of these results: Drugs with an entry number were screened twice under separate entries, and the two screens often disagree.
Assays:
Assay in all cases: Viability of human cancer cell lines after 72 h of drug (GDSC screen)
[1] = compound: O=C(NC1CC1)c1cccc(-c2ccc3c(NC(=O)C4CC4)n[nH]c3c2)c1 [XMD13-2]; details: top dose 10.24 µM; top dose inferred
Procedure: (§1)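 Human cancer cell lines in 384-well plates, medium with 10% serum, drug for 72 h over a 256-fold dose range (nine 2-fold or five 4-fold steps up to the top dose). Adherent lines were fixed and stained with the nucleic acid dye Syto60, suspension lines read with resazurin; signal relative to control wells, capped at 0 and 100%. One two-parameter sigmoid per drug and line, fitted in a mixed model over all curves with the slope shared within a line.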

[2] = compound: CC1(C)CC(=O)c2c(C(F)(F)F)nn(-c3ccc(C(N)=O)c(N[C@H]4CC[C@H](O)CC4)c3)c2C1 [SNX-2112]; details: top dose 2.56 µM
Procedure: as §1

[3] = compound: CN(c1ncccc1CNc1nc(Nc2ccc3c(c2)CC(=O)N3)ncc1C(F)(F)F)S(C)(=O)=O [PF-562271]; details: top dose 2.56 µM; top dose inferred
Procedure: as §1

[4] = compound: CN(C)C/C=C/C(=O)Nc1cc2c(Nc3ccc(F)c(Cl)c3)ncnc2cc1O[C@H]1CCOC1 [Afatinib]
Procedure: as §1

[5] = compound: CC[C@]1(O)C[C@@H]2CN(CCc3c([nH]c4ccccc34)[C@@](C(=O)OC)(c3cc4c(cc3OC)N(C)[C@H]3[C@@](O)(C(=O)OC)[C@H](OC(C)=O)[C@]5(CC)C=CCN6CC[C@]43[C@@H]65)C2)C1 [Vinblastine]; details: top dose 0.1 µM; top dose inferred
Procedure: as §1

[6] = top dose 0.5 µM, screen: GDSC drug entry 1032
[7] = top dose 10 µM, screen: GDSC drug entry 1377, top dose inferred

Row | Cell Line | AUC [1] | IC50 [1] [nM] | AUC [2] | IC50 [2] [nM] | AUC [3] | IC50 [3] [nM] | AUC [4, 6] | IC50 [4, 6] [nM] | AUC [4, 7] | IC50 [4, 7] [nM] | AUC [5] | IC50 [5] [nM]
1 | AM-38 (glioma, semi-adherent) | 0.944 | > 10200 | 0.398 | 83.3 | 0.944 | > 2560 | 0.988 | > 500 | 0.987 | > 10000 | 0.73 | 28.7
2 | AMO-1 (haematopoietic neoplasm, suspension) | 0.901 | 9990 | 0.184 | 21.8 | 0.977 | > 2560 | 0.991 | > 500 | 0.973 | > 10000 | 0.367 | 2.85
3 | AN3-CA (endometrium, adherent) | 0.948 | > 10200 | 0.865 | > 2560 | 0.812 | 1530 | 0.971 | > 500 | 0.971 | > 10000 | 0.568 | 
4 | ARH-77 (myeloma, suspension) | 0.841 | 6730 | 0.28 | 39.1 | 0.969 | > 2560 | 0.987 | > 500 | 0.969 | > 10000 | 0.827 | 58.1
5 | ASH-3 (thyroid, adherent) | 0.988 | > 10200 | 0.875 | 2520 | 0.856 | 2070 | 0.955 | > 500 | 0.987 | > 10000 | 0.704 | 23.5
6 | ATN-1 (T-cell lymphoblastic leukaemia, suspension) | 0.739 | 2910 | 0.295 | 44.2 | 0.917 | > 2560 | 0.984 | > 500 | 0.941 | > 10000 | 0.171 | 0.687
7 | AU565 (breast, adherent) | 0.948 | > 10200 | 0.82 | 1700 | 0.971 | > 2560 | 0.551 | 43.9 | 0.379 | 279 | 0.384 | 2.89
8 | AsPC-1 (pancreas, adherent) | 0.945 | > 10200 | 0.701 | 893 | 0.96 | > 2560 | 0.923 | > 500 |  |  | 0.613 | 16
9 | BB30-HNC (head and neck, adherent) | 0.899 | > 10200 | 0.351 | 62.6 | 0.913 | > 2560 | 0.639 | 74.9 | 0.579 | 1030 | 0.39 | 3.14
10 | BB49-HNC (head and neck, adherent) | 0.977 | > 10200 | 0.518 | 183 | 0.927 | > 2560 | 0.973 | > 500 | 0.953 | > 10000 | 0.615 | 14.7
11 | BB65-RCC (kidney, adherent) | 0.966 | > 10200 | 0.566 | 249 | 0.944 | > 2560 | 0.788 | 256 | 0.849 | 9250 | 0.688 | 22.9
12 | BC-1 (B-cell lymphoma, suspension) | 0.61 | 1220 | 0.303 | 49.4 | 0.856 | 1590 | 0.99 | > 500 | 0.864 | 6660 | 0.779 | 34.7
13 | HCC-15 (lung squamous cell carcinoma, adherent) | 0.96 | > 10200 | 0.887 | > 2560 | 0.928 | > 2560 |  |  |  |  | 0.54 | 8.27
14 | HSC-4 (head and neck, adherent) | 0.957 | > 10200 | 0.794 | 1640 | 0.885 | > 2560 |  |  |  |  | 0.39 | 2.82
15 | HT-1197 (bladder, adherent) | 0.985 | > 10200 | 0.935 | > 2560 | 0.976 | > 2560 |  |  |  |  | 0.908 | > 100
16 | LCLC-97TM1 (large cell lung carcinoma, adherent) | 0.75 | 3620 | 0.369 | 66.9 | 0.867 | > 2560 |  |  |  |  | 0.47 | 5.13
17 | MV-4-11 (leukaemia, suspension) | 0.847 | 5620 | 0.331 | 59.8 | 0.611 | 304 |  |  |  |  | 0.33 | 2.32
18 | NB1 (neuroblastoma, semi-adherent) | 0.946 | > 10200 | 0.776 | 1130 | 0.87 | > 2560 |  |  |  |  | 0.434 | 4.04
19 | NCI-H292 (lung adenocarcinoma, adherent) | 0.979 | > 10200 | 0.187 | 14.6 | 0.851 | > 2560 |  |  |  |  | 0.41 | 3.35
20 | NCI-H358 (lung adenocarcinoma, adherent) | 0.86 | > 10200 | 0.31 | 43.8 | 0.855 | 2420 |  |  |  |  | 0.832 | 74.3
21 | NCI-H1623 (lung adenocarcinoma, adherent) | 0.985 | > 10200 | 0.922 | > 2560 | 0.98 | > 2560 |  |  |  |  | 0.919 | > 100
22 | NCI-H1781 (lung adenocarcinoma, adherent) | 0.989 | > 10200 | 0.958 | > 2560 | 0.937 | > 2560 |  |  |  |  | 0.723 | 26.8
23 | NCI-H1975 (lung adenocarcinoma, adherent) | 0.967 | > 10200 | 0.645 | 428 | 0.869 | > 2560 |  |  |  |  | 0.594 | 11.8
24 | PC-14 (lung adenocarcinoma, adherent) | 0.889 | 9520 | 0.328 | 56.5 | 0.968 | > 2560 |  |  |  |  | 0.387 | 3.17
25 | SW620 (large intestine, adherent) | 0.839 | 5830 | 0.356 | 67.5 | 0.881 | 2130 |  |  |  |  | 0.61 | 12.1
26 | U-2-OS (osteosarcoma, adherent) | 0.957 | > 10200 | 0.981 | > 2560 | 0.904 | > 2560 |  |  |  |  | 0.712 | 26.5
